Some of the results follow. These are noisy estimates, calculated here from bound and input reads.
target: T1, Pho4 (S. cerevisiae) (UniProt P07270); assay: relative binding free energy (BET-seq); higher = weaker binding; conditions: reference: library average
T1 sequence: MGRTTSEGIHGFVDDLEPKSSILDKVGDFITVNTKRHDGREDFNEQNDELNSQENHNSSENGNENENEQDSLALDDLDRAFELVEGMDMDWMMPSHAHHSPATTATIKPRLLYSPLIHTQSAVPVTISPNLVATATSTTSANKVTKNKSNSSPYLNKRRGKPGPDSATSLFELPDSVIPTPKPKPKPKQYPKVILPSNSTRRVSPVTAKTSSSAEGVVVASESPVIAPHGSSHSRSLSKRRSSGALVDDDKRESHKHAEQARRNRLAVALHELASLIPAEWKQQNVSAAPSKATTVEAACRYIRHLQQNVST

Sequence | relative binding free energy [kcal/mol]
CGGTGCACGTGAGTAG | 0.1
TTCTGCACGTGGCTGG | -0.02
ATGGACACGTGACTGG | 0.09
GGTTTCACGTGCGTTG | 0.4
TTAGACACGTGAGGGG | 0.16
GGCTACACGTGGGGTT | -0.08
ATGAACACGTGGCTTG | -0.01
GGTGTCACGTGACCGG | 0.17
TTCGGCACGTGTTTGT | -0.03
GGCAACACGTGCGGGT | 0.01
ATTTCCACGTGTTTGG | 0.03
TGTGTCACGTGCTCGT | 0.03
TGTAGCACGTGGGAAT | -0.24
GGGGCCACGTGCGTAG | -0.11
TCGGGCACGTGTTCGG | -0.14
GTTCTCACGTGAGGTT | 0.33
TGTCACACGTGGGCGG | -0.01
AATATCACGTGTAGTG | 0.01
TAAGACACGTGGTCGG | 0.01
AGTGACACGTGGAGGC | 0.06
GGTCGCACGTGATGAG | 0.11
ATGGGCACGTGCAAGG | -0.06
GGTGCCACGTGAGCTG | 0.13
TGACTCACGTGGGGGT | 0.05
AAGCGCACGTGGGTCG | -0.18

Sequence | relative binding free energy [kcal/mol]
GCTGGCACGTGGATGC | 0
GTTCTCACGTGTATTT | 0.09
AGGGGCACGTGGGTAG | -0.18
GGGTGCACGTGTCTTA | 0.02
GGTATCACGTGATGGG | 0.37
TATGACACGTGAGTGC | 0.23
TAGCTCACGTGATGGG | 0.37
GGTGCCACGTGGGTGG | -0.2
TGGCGCACGTGGGCAT | -0.28
TGTTTCACGTGATATT | 0.3
AATTACACGTGGGGGA | -0.05
TGGTGCACGTGCAAGG | -0.05
GGGCGCACGTGTAAGG | 0.04
CATTACACGTGAGTTA | 0.43
TGATACACGTGAGATT | 0.3
TGTTACACGTGGGTGA | 0
TGAATCACGTGTGTTC | 0.11
TTTGCCACGTGTATTT | -0.09
AGAGGCACGTGGATAT | -0.13
TCGTGCACGTGTAGTG | -0.09
GTGCACACGTGTTGGA | 0.1
GGTTCCACGTGTTCAG | 0.17
TGTGTCACGTGATACG | 0.23
TGTCGCACGTGTATAG | -0.09
CGTGTCACGTGAGATT | 0.27

Sequence | relative binding free energy [kcal/mol]
GGCTGCACGTGGGATA | -0.09
CTTAGCACGTGTTTAT | -0.07
GTAGTCACGTGGTATT | 0.14
TTAGGCACGTGACGGT | -0.15
GTTGACACGTGTAGTC | 0.19
TTATTCACGTGGGTCT | 0.16
TTAGGCACGTGCTTCG | -0.19
GAGTTCACGTGCGGTC | 0.36
GGGTGCACGTGTCGTT | 0.14
GGGACCACGTGATGTG | 0.18
CTTTTCACGTGTGTAT | 0.28
GTGGGCACGTGTTGCT | 0.05
CTTTTCACGTGATGGA | 0.31
AGAAACACGTGGTTGG | -0.02
TGATTCACGTGGTGCG | 0.13
ACTTGCACGTGGGTAT | -0.04
AGAAGCACGTGGTTAT | -0.19
ATTTGCACGTGTTACT | 0.08
TTAGGCACGTGGCCGG | -0.17
TTGAACACGTGTGGTA | 0.03
TAAATCACGTGGGGGA | 0.03
GGATGCACGTGGTTTT | 0.02
ATGAACACGTGCGTTT | 0.02
CAGGACACGTGGATTG | 0.12
TCTATCACGTGTGCAG | 0.19

Sequence | relative binding free energy [kcal/mol]
TTATTCACGTGGTGGT | 0.21
TGTTCCACGTGTATTA | 0.1
GAAGTCACGTGTCGTG | 0.13
TGGGTCACGTGAGATA | 0.32
TTGAGCACGTGGCGGT | -0.1
TAGTGCACGTGATAGA | 0.04
TTGGTCACGTGCGTAA | -0.2
ATTGTCACGTGAATTT | 0.24
CTGGACACGTGGTTTG | 0.04
AGTTTCACGTGGACGA | 0.29
TAAAACACGTGTGGGA | 0.07
TTGCTCACGTGTTAAT | 0.22
TGTTGCACGTGGCCAG | -0.05
AATTGCACGTGTACGT | -0.09
AAGGTCACGTGAGGAG | 0.33
AAGATCACGTGGGTAG | -0.08
ATTGTCACGTGTGATG | 0.14
TGTCGCACGTGGTGCA | -0.3
TGATGCACGTGCAAGG | -0.06
ATTGGCACGTGGGCTT | -0.29
TATCGCACGTGTATTG | -0.08
TTATTCACGTGTAATG | 0.32
TTCGTCACGTGGTCGT | 0.06
TGGCTCACGTGCGGGC | 0.27
CTGAGCACGTGGTGGT | 0

Sequence | relative binding free energy [kcal/mol]
GTGCGCACGTGAATGG | 0.2
TGTGGCACGTGGGATT | -0.11
TTCTGCACGTGTTCGG | -0.02
TTGTTCACGTGTTGAT | 0.28
GAGGTCACGTGCGTGG | -0.05
TGGATCACGTGCTTGA | 0.11
TGTTTCACGTGTTGGC | 0.25
TCGGGCACGTGCGAGG | -0.16
GGAGGCACGTGGTCAT | -0.23
TGCTACACGTGTGCGT | 0.15
TGGTTCACGTGAATTA | 0.3
GTTGACACGTGGATGA | 0.02
TTGGCCACGTGTCGGT | 0.17
AGTATCACGTGACAGG | 0.2
TAGGGCACGTGGGAGG | -0.19
TGCACCACGTGTTGTT | 0.08
GGAGGCACGTGTGTTG | -0.02
TTAATCACGTGGAAGT | 0.22
TAGTACACGTGTTGTC | 0.06
TATTGCACGTGGGCAA | -0.18
GGTGACACGTGATAGG | 0.26
GATAACACGTGATTTT | 0.22
GATTGCACGTGAGAAG | 0.27
GCTGTCACGTGGGGGC | -0.05
ATAGTCACGTGAAAAT | 0.3

Sequence | relative binding free energy [kcal/mol]
GGTCACACGTGGTTCG | 0.07
GGGGGCACGTGTTGGG | 0.02
ATTAACACGTGGGCGT | -0.07
TATATCACGTGGTAAA | -0.02
AAGGCCACGTGTAGTT | -0.06
TAGTTCACGTGTGGGG | 0.31
GAGCACACGTGGGAGG | 0.02
ACTTGCACGTGTGGTA | 0.06
ATTGTCACGTGCTTTA | -0.04
TAGGACACGTGATTAT | 0.15
TGCTCCACGTGGGGGA | 0.04
AGGTCCACGTGAGAGG | 0.24
TTTCTCACGTGAATTT | 0.48
TGTTTCACGTGTCGCT | 0.21
TGTGGCACGTGTTAAC | 0.05
AGATTCACGTGGGCGA | 0.27
AATATCACGTGTAATT | 0
AGATACACGTGGGTAA | -0.03
TTTTCCACGTGGATGA | 0.22
TAAAGCACGTGTTTGA | -0.14
AATATCACGTGTTGTT | 0.13

— the BET-seq Pho4 binding data (Le et al. 2018)
